Some of the results follow.
Biological target: T1, OsWOX13 (Oryza sativa, UniProt Q5QMM3 1-267)
T1 sequence: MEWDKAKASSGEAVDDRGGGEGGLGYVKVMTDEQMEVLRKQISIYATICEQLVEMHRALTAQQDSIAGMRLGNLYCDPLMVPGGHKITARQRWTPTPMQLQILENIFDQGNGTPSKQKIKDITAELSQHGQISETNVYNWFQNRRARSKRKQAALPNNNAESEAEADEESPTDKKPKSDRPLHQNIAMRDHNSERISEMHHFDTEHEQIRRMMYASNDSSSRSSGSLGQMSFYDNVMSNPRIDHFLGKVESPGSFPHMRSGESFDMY
Assay: protein-binding microarray (RPBM); PBS, 2% BSA, 51.3 ng/ul salmon testes DNA, 50 uM zinc acetate, 200 nM TF, 25 C, 1 h; high values mean tight binding
Conditions: protein: recombinant; tags: N-terminal polyhistidine and DsRed monomer fusion (pET32a); label: CyDye5-dUTP incorporated in the synthesized complementary strand; 3' TTTTT single-stranded linker to array surface; dsDNA, one strand shown
Method in brief: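 The binding signal is fluorescence intensity per feature, in arbitrary units, read on an Axon 4000B scanner. Polyhistidine- and DsRed-tagged transcription factors (N-terminal fusions) from E. coli BL21-CodonPlus were purified on Ni–NTA and applied at 200 nM for 1 h at 25 °C to a double-stranded, BSA-blocked custom Agilent array in buffer with 50 µM zinc acetate.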

Sequence | binding signal
AATAACTCAAATCAGCTATAGTCAAACTTAATAGCTAATTCGGAGTCACCTAGTGCAG | 6290 fluorescence intensity (a.u.)
CTACGGTCATCATCAATCACCATGGATCTGAATCCTAACGCGGAGTCACCTAGTGCAG | 27300 fluorescence intensity (a.u.)
TAATGATTATCTCAGCAGATCAGATTTCGGGAGTGATTTACGGAGTCACCTAGTGCAG | 11600 fluorescence intensity (a.u.)
ATAATGACCAGTCTATAATGACCGGTTTTGTATGTTATGGCGGAGTCACCTAGTGCAG | 6250 fluorescence intensity (a.u.)
CCTTTTAAATTAAGGTATAAGGTATAGCCATATGCAAAGGCGGAGTCACCTAGTGCAG | 3260 fluorescence intensity (a.u.)
CTGATATCTGTCTTCACATAGATTAGGAGCAAAATTTATCCGGAGTCACCTAGTGCAG | 3920 fluorescence intensity (a.u.)
TAGTAGTTGACATCGTTGATTAGTGATTACTATGAAACAGCGGAGTCACCTAGTGCAG | 34000 fluorescence intensity (a.u.)
GGCACAAATTGGGCTGCAGATGAAATGAGCACATAATAAGCGGAGTCACCTAGTGCAG | 3550 fluorescence intensity (a.u.)
ATTTGTAATCAAGTTTATATAAAATTTTAGCAACACCTATCGGAGTCACCTAGTGCAG | 4980 fluorescence intensity (a.u.)
TGATAATTTAATTTAACATGTTTGTATTTGAAAAGCTCTTCGGAGTCACCTAGTGCAG | 25500 fluorescence intensity (a.u.)
TTCAAATCAAGATTTGAAAACTTTCAACTCGAGAATCAAGCGGAGTCACCTAGTGCAG | 8080 fluorescence intensity (a.u.)
GGTGACATTCAGTCATTGACATGTGGGACCCACATGTGCCCGGAGTCACCTAGTGCAG | 19600 fluorescence intensity (a.u.)
TTATCCAAAACGTCAATTAATATAGAACTAGAGTGAGTACCGGAGTCACCTAGTGCAG | 4500 fluorescence intensity (a.u.)
GTTAATGAATCTAGACATATATATCTATCTAGATTCATTACGGAGTCACCTAGTGCAG | 6740 fluorescence intensity (a.u.)
ATCAGCTGATTACCTCACTGCATCCGTATGATTCGACTTTCGGAGTCACCTAGTGCAG | 7310 fluorescence intensity (a.u.)
ATACACTAAAATTACATATGTAATTTAGGGACTTACAATGCGGAGTCACCTAGTGCAG | 7340 fluorescence intensity (a.u.)
GTGTGATGAATTCTTTTGTTTGATTGACATCTCCTGCTTGCGGAGTCACCTAGTGCAG | 43100 fluorescence intensity (a.u.)
AGATAAATCAATATGTAATATATCACTCCACAACCATGCACGGAGTCACCTAGTGCAG | 5500 fluorescence intensity (a.u.)
CATCATCACGTCCGTCATGATGGCGCAATCAAACTAACACCGGAGTCACCTAGTGCAG | 3360 fluorescence intensity (a.u.)
CACATTGACCAAAATTTAATGTTTGTTTCCTACTAGTGTGCGGAGTCACCTAGTGCAG | 4440 fluorescence intensity (a.u.)
TTAATTTGTGTGGATATGAATTTAAATTCATATTCATTTGCGGAGTCACCTAGTGCAG | 5550 fluorescence intensity (a.u.)

Sequence | binding signal
CAACCCAATCAGCAGACTCCTGATCCCGGCGAGCAAGGTACGGAGTCACCTAGTGCAG | 3260 fluorescence intensity (a.u.)
AACTGATGAATTTGTCTTTTCCGTTTAAACTTTGACCACCCGGAGTCACCTAGTGCAG | 7140 fluorescence intensity (a.u.)
AAAATTTGACAAGATAGATTCATATGTAATATATCACCCCCGGAGTCACCTAGTGCAG | 20900 fluorescence intensity (a.u.)
TGGAGATTGATGAAGTTACTACTAACGACTCGCTGTTGACCGGAGTCACCTAGTGCAG | 30500 fluorescence intensity (a.u.)
AAAACTGTAACTATGAATTACATCTAATATATTTGTGTCCCGGAGTCACCTAGTGCAG | 3510 fluorescence intensity (a.u.)
TGTTAAATTTCCTTCAAAATTTGTATGGGAAGAGGTATTCCGGAGTCACCTAGTGCAG | 4800 fluorescence intensity (a.u.)
ACATAATACATTTATTAATAAATTCTTATAAGATTTCATACGGAGTCACCTAGTGCAG | 3800 fluorescence intensity (a.u.)
AAGAGCTGATGGGAAAGATTGGTTTCTAGTGTTGGACCAGCGGAGTCACCTAGTGCAG | 5360 fluorescence intensity (a.u.)
TTGATATAGCTAATACTTAATTAATCATGCGCTAACGGACCGGAGTCACCTAGTGCAG | 4660 fluorescence intensity (a.u.)
CAACCAATAAATTAGAACTCCATCTCGATCATGGTGTTATCGGAGTCACCTAGTGCAG | 4370 fluorescence intensity (a.u.)
CCGAGACGTAGATAGTAAATAATTAGATTTCCCAGTACAGCGGAGTCACCTAGTGCAG | 5860 fluorescence intensity (a.u.)
GATGAAATAGACAGAAGAGTGTGGCAGTCAAGGAGCCCTTCGGAGTCACCTAGTGCAG | 12400 fluorescence intensity (a.u.)
CCGTGATTAGCCATAAGTGCTACAGTAACCCACATGTGCTCGGAGTCACCTAGTGCAG | 57900 fluorescence intensity (a.u.)
GACATCAGATTGAGTATCACTGAGTCTACCAATTGAAGGTCGGAGTCACCTAGTGCAG | 6080 fluorescence intensity (a.u.)
AAAATGAAAATAATATATGATTTAAAATATATAAGTCATCCGGAGTCACCTAGTGCAG | 3850 fluorescence intensity (a.u.)
TCCATGATTGAGACAATCCTAAGGAATTTCAAAAGATTTGCGGAGTCACCTAGTGCAG | 46000 fluorescence intensity (a.u.)
AGCTTAAATAAAGTAATAATTAATTGGAACACTCCCAAAACGGAGTCACCTAGTGCAG | 15500 fluorescence intensity (a.u.)
TATATATATATATATATATATATATTGAAACATAGATATGCGGAGTCACCTAGTGCAG | 20300 fluorescence intensity (a.u.)
TTACCATTTAATTAAATTAAGAGGGATACATATCCATTATCGGAGTCACCTAGTGCAG | 12900 fluorescence intensity (a.u.)
GATTGCTCACTGATTGGAAAATTTGTATCTACCAGTATCCCGGAGTCACCTAGTGCAG | 36000 fluorescence intensity (a.u.)
TTTTAAAAGGTTGATTGAATCTTTTGCTAAGCATCAAATACGGAGTCACCTAGTGCAG | 9890 fluorescence intensity (a.u.)
